Reference: the supplement of paper PMC6657886
MIC of clinical N. gonorrhoeae isolates (2015-2017) by agar dilution on GC agar with 1% IsoVitaleX (ranges not stated); higher = less susceptible. No active / inactive call per row; the paper counts benzylpenicillin above 1 and ceftriaxone above 0.125 mg/L as resistant (EUCAST). The method is stated for benzylpenicillin and ceftriaxone and assumed for the other drugs. '<=' is inferred from pile-ups at the end values. Isolates are numbered anew.

Experiments:
Assay in all cases: Agar dilution on enriched GC agar; resistance determinants by microarray.
ceftriaxone = compound: CO/N=C(\C(=O)N[C@@H]1C(=O)N2C(C(=O)O)=C(CSc3nc(=O)c(O)nn3C)CS[C@H]12)c1csc(N)n1 [ceftriaxone]
tetracycline = compound: CN(C)[C@@H]1C(O)=C(C(N)=O)C(=O)[C@@]2(O)C(O)=C3C(=O)c4c(O)cccc4[C@@](C)(O)[C@H]3C[C@@H]12 [tetracycline]
benzylpenicillin = compound: CC1(C)S[C@@H]2[C@H](NC(=O)Cc3ccccc3)C(=O)N2[C@H]1C(=O)O [benzylpenicillin]
azithromycin = compound: CC[C@H]1OC(=O)[C@H](C)[C@@H](O[C@H]2C[C@@](C)(OC)[C@@H](O)[C@H](C)O2)[C@H](C)[C@@H](O[C@@H]2O[C@H](C)C[C@H](N(C)C)[C@H]2O)[C@](C)(O)C[C@@H](C)CN(C)[C@H](C)[C@@H](O)[C@]1(C)O [azithromycin]
spectinomycin = compound: CN[C@@H]1[C@H](O)[C@H](NC)[C@H]2O[C@@]3(O)C(=O)C[C@@H](C)O[C@H]3O[C@@H]2[C@H]1O [spectinomycin]

Test System	MIC (ceftriaxone) [µg/mL]	MIC (tetracycline) [µg/mL]	MIC (benzylpenicillin) [µg/mL]	MIC (azithromycin) [µg/mL]	MIC (spectinomycin) [µg/mL]
Neisseria gonorrhoeae isolate 163 (blaTEM plasmid: no, gyrA: Phe91, Asn95, mtrR promoter: -35delA, parC: Arg87, Glu91, penA: ins345Asp, ponA: Pro421, porB: wild type, rpsJ: Met57, tetM plasmid: no)	0.008	1	0.5	0.5	16
Neisseria gonorrhoeae isolate 171 (blaTEM plasmid: no, gyrA: Phe91, Gly95, mtrR promoter: wild type, parC: Arg87, Glu91, penA: ins345Asp, ponA: wild type, porB: Asn120, Asp121, rpsJ: Met57, tetM plasmid: no)	0.004	2	0.25	0.25	16
Neisseria gonorrhoeae isolate 209 (blaTEM plasmid: no, gyrA: Phe91, Asn95, mtrR promoter: -35delA, parC: Arg87, Glu91, penA: ins345Asp, ponA: Pro421, porB: wild type, rpsJ: Met57, tetM plasmid: no)	0.015	1	1	1	32
Neisseria gonorrhoeae isolate 295 (blaTEM plasmid: no, gyrA: wild type, mtrR promoter: wild type, parC: wild type, penA: ins345Asp, ponA: wild type, porB: wild type, rpsJ: wild type, tetM plasmid: no)	0.004	0.06	0.25	0.008	32
Neisseria gonorrhoeae isolate 54 (blaTEM plasmid: no, gyrA: Phe91, Gly95, mtrR promoter: wild type, parC: Arg87, Glu91, penA: ins345Asp, ponA: Pro421, porB: Asp120, Ala121, rpsJ: wild type, tetM plasmid: no)	0.004	0.25	0.25	0.015	32
Neisseria gonorrhoeae isolate 456 (blaTEM plasmid: no, gyrA: wild type, mtrR promoter: wild type, parC: wild type, penA: ins345Asp, ponA: wild type, porB: wild type, rpsJ: wild type, tetM plasmid: no)	≤ 0.002	0.25	0.06	0.03	16
Neisseria gonorrhoeae isolate 19 (blaTEM plasmid: no, gyrA: wild type, mtrR promoter: -35delA, parC: wild type, penA: ins345Asp, ponA: wild type, porB: wild type, rpsJ: wild type, tetM plasmid: no)	≤ 0.002	0.25	0.06	0.12	16
Neisseria gonorrhoeae isolate 78 (blaTEM plasmid: no, gyrA: Thr91, Gly95, mtrR promoter: wild type, parC: wild type, penA: ins345Asp, ponA: Pro421, porB: Asp120, Gly121, rpsJ: Met57, tetM plasmid: yes)	≤ 0.002	4	0.06	0.015	16
Neisseria gonorrhoeae isolate 261 (blaTEM plasmid: no, gyrA: Thr91, Gly95, mtrR promoter: wild type, parC: wild type, penA: ins345Asp, ponA: wild type, porB: wild type, rpsJ: Met57, tetM plasmid: no)	≤ 0.002	0.5	0.06	0.03	32
Neisseria gonorrhoeae isolate 92 (blaTEM plasmid: yes, gyrA: wild type, mtrR promoter: wild type, parC: wild type, penA: ins345Asp, ponA: Pro421, porB: Asp120, Ala121, rpsJ: Met57, tetM plasmid: yes)	0.008	32	16	0.06	16
Neisseria gonorrhoeae isolate 291 (blaTEM plasmid: yes, gyrA: Phe91, Asp95, mtrR promoter: wild type, parC: Arg87, Lys91, penA: ins345Asp, ponA: wild type, porB: wild type, rpsJ: Met57, tetM plasmid: yes)	≤ 0.002	32	16	0.06	16
Neisseria gonorrhoeae isolate 322 (blaTEM plasmid: no, gyrA: wild type, mtrR promoter: wild type, parC: wild type, penA: wild type, ponA: wild type, porB: wild type, rpsJ: wild type, tetM plasmid: no)	≤ 0.002	0.12	≤ 0.015	0.12	16
Neisseria gonorrhoeae isolate 166 (blaTEM plasmid: no, gyrA: Thr91, Gly95, mtrR promoter: wild type, parC: wild type, penA: ins345Asp, ponA: wild type, porB: wild type, rpsJ: wild type, tetM plasmid: no)	≤ 0.002	0.12	0.25	0.12	16
Neisseria gonorrhoeae isolate 264 (blaTEM plasmid: yes, gyrA: Phe91, Asn95, mtrR promoter: wild type, parC: wild type, penA: wild type, ponA: wild type, porB: wild type, rpsJ: Met57, tetM plasmid: yes)	≤ 0.002	8	≥ 32	0.06	16
Neisseria gonorrhoeae isolate 188 (blaTEM plasmid: no, gyrA: Phe91, Gly95, mtrR promoter: wild type, parC: Arg87, Glu91, penA: ins345Asp, ponA: wild type, porB: wild type, rpsJ: Met57, tetM plasmid: no)	≤ 0.002	0.5	0.25	0.015	32
Neisseria gonorrhoeae isolate 70 (blaTEM plasmid: no, gyrA: wild type, mtrR promoter: wild type, parC: wild type, penA: ins345Asp, ponA: wild type, porB: wild type, rpsJ: wild type, tetM plasmid: no)	≤ 0.002	0.5	0.25	0.008	32
Neisseria gonorrhoeae isolate 149 (blaTEM plasmid: no, gyrA: wild type, mtrR promoter: wild type, parC: wild type, penA: ins345Asp, ponA: wild type, porB: wild type, rpsJ: wild type, tetM plasmid: no)	≤ 0.002	0.25	0.06	0.03	32
Neisseria gonorrhoeae isolate 225 (blaTEM plasmid: no, gyrA: Thr91, Gly95, mtrR promoter: wild type, parC: wild type, penA: ins345Asp, ponA: wild type, porB: wild type, rpsJ: Met57, tetM plasmid: no)	≤ 0.002	0.5	0.25	0.06	16
Neisseria gonorrhoeae isolate 271 (blaTEM plasmid: no, gyrA: wild type, mtrR promoter: wild type, parC: wild type, penA: ins345Asp, ponA: wild type, porB: wild type, rpsJ: wild type, tetM plasmid: no)	0.004	0.25	0.06	0.004	32
Neisseria gonorrhoeae isolate 58 (blaTEM plasmid: no, gyrA: wild type, mtrR promoter: wild type, parC: wild type, penA: ins345Asp, ponA: wild type, porB: wild type, rpsJ: wild type, tetM plasmid: no)	0.008	0.12	≤ 0.015	0.5	32
